The source of these data is PubChem BioAssay AID463173 (ICCB-Longwood Screening Facility, Harvard Medical School, 2010).

The structures appear in SMILES notation. The whole screen tested about 52,000 compounds, of which about 4,300 (8.3%) were called active. Rule as the data show it: active = survival mostly below about 52% (no sharp cut-off); inactive = mostly above about 56%. The list shows a part of the results.

The test system of this test is DeltatarO mutant. In words: S. aureus survival, RN4220 and DeltatarO strains – OD600, teichoic acid synthesis inhibitors, primary screen (AID 463173). The note with it: S. aureus RN4220 wild type/DeltatarO growth, OD600, 18 h, hits give low values, screened at 18.75 µg/mL (by protocol).
As for `CC(=O)N1CCCc2cc(S(=O)(=O)N3CCCC(C(=O)Nc4ccc(C)c(F)c4)C3)ccc21` (centres undefined), the survival is inactive: 77%.

Consider `Cc1cccc(C(=O)Nc2ccccc2OCc2cc(=O)n3cc(C)ccc3n2)c1`, for which the survival is inactive: 60%.

Take `COc1ccc(OC(=O)c2ccc3snnc3c2)cc1`: the survival was inactive: 86%.

On to `COc1cc(OC)cc(C(=O)Nc2cccc(-c3cn4ccsc4n3)c2)c1`, for which the survival is active: 6%.

For `COc1ccc(OC)c(CNc2ncnc3onc(C)c23)c1`, the survival was inactive: 129%.

With `CCOC(=O)c1cc2c(=O)n3ccccc3nc2n(C(C)C)c1=NC(=O)c1c(-c2c(F)cccc2Cl)noc1C`, the survival is inactive: 151%.

As for `CCc1cccc(C)c1NC(=O)c1cc(S(=O)(=O)N2CCN(c3ccccc3)CC2)ccc1F`, the survival is inactive: 90%.

For `Cc1cccc(CCNC(=O)CCc2c(C)nc3c(c(C)nn3-c3ccccc3)c2C)c1`, the survival is active: 48%.

As for `CN(C)c1ccc(C(=O)NCc2ccc3c(c2)CCN3C(=O)c2ccc(Cl)cc2)cc1`, the survival is inactive: 102%.

Consider `COc1ccc(Cl)cc1NC(=O)CCn1nc(C)cc1C`, for which the survival is inactive: 67%.

Take `CC1=CCC2C(=O)N(C3CCCCC3)C(=O)C2C1` (centres undefined): the survival is inactive: 79%.

Regarding `COc1ccc(CCNC(=O)c2cc(=O)[nH]c3ccc(S(=O)(=O)N4CCCCC4)cc23)cc1OC`, the survival is inactive: 76%.

As to `CCOc1ccc(NC(=O)C2CCC(CNS(=O)(=O)c3ccc4c(c3)CCCC(=O)N4)CC2)cc1` (centres undefined), the survival was active: 47%.

As for `CC(=O)Nc1c(C)nn(-c2ccccc2)c1N1CCC(C(=O)NCc2cccc(F)c2)CC1`, the survival is active: 6%.

Take `Cc1ccc(N(CC(=O)N2CCN(c3cccc(C)c3C)CC2)S(=O)(=O)c2c(C)nn(C)c2C)cc1`: the survival was inactive: 75%.

For `CCN(c1cc(C)cc(C)c1)S(=O)(=O)c1nnc(NC(=O)c2ccccc2C)s1`, the survival was inactive: 49%.

`CCOc1ccc(NC(=O)CSc2cn(CC(=O)N3CCOCC3)c3ccccc23)cc1`: the survival was inactive: 95%.

On to `CC(C)OCCCn1c(SCc2ccccc2Cl)nc2c(sc3ccccc32)c1=O`, for which the survival is inactive: 134%.

Take `CCC(Cc1ccccc1)NC(=O)c1cccc(Nc2nc3ccccc3nc2-n2nc(C)cc2C)c1` (centres undefined): the survival was inactive: 63%.

Regarding `N#Cc1cc2cc3c(cc2nc1N1CCCN(C(=O)c2ccccc2)CC1)OCO3`, the survival was inactive: 89%.

For the compound `CCC1CN(C(=O)N2CCC(C(=O)NCCC3=CCCCC3)CC2)c2ccccc2O1` (centres undefined), the survival is inactive: 65%.

As to `CCC1CCCCN1C(=O)Cn1c(=O)n(-c2ccc(Cl)c(Cl)c2)c(=O)c2c(C)c(C(=O)N(C)C)sc21` (centres undefined), the survival was inactive: 92%.

`O=S(=O)(Nc1cccc(-c2ccc(N3CCOCC3)nn2)c1)c1ccc(F)c(C(F)(F)F)c1`: the survival is inactive: 80%.

Take `O=c1c2ccccc2[nH]c(=S)n1C1CCCC1`: the survival is inactive: 88%.

As to `COc1ccc(-c2cc(C(F)(F)F)nc(SCC(=O)N(C)Cc3ccccc3)n2)cc1`, the survival was inactive: 44%.

For `CCOc1ccc(C(C(=O)NC2CCCC2)N(Cc2ccco2)C(=O)Cn2nnc3ccccc32)cc1OC` (centres undefined), the survival was inactive: 110%.

For the compound `Cn1nc(C(=O)NCc2ccccc2Cl)c2c1-c1ccccc1SC2`, the survival is inactive: 81%.

Regarding `CCN(CC)c1nn2c(=O)c(C(=O)NCc3ccccc3Br)cnc2s1`, the survival was inactive: 91%.

For the compound `CCCC(c1nnnn1Cc1ccc(OC)cc1)N1CCC(C(N)=O)CC1` (centres undefined), the survival was inactive: 98%.

`CC1(C)CC(=O)C(C=NCc2ccccc2)=C(O)C1`: the survival was inactive: 95%.

As to `O=C(NCCc1ccc(Cl)cc1)c1cc2c(s1)-c1ccccc1OC2`, the survival is inactive: 61%.

`CCOc1ccc(NC(=O)N2CCN(C(=O)c3nsc4ccccc34)CC2)cc1`: the survival is inactive: 94%.

As for `COc1cc(OC)c2c(C)c(CC(=O)NCc3ccccc3OC)c(=O)oc2c1`, the survival was inactive: 54%.

In the case of `Cc1cccc(NC(=O)c2ccc(Cn3nc(N4CCN(c5ccccc5)CC4)ccc3=O)o2)c1C`, the survival is inactive: 77%.

Regarding `Cc1cc(=O)n(Cc2ccc(Br)cc2F)c2c1c(C)nn2-c1ccccc1`, the survival was inactive: 101%.

Regarding `Cc1ccc(NC(=O)Cn2c(=O)n(CCCCC(=O)NCCc3ccccc3)c(=O)c3ccccc32)cc1`, the survival is inactive: 83%.

For the compound `O=C(CCNS(=O)(=O)c1ccc2c(c1)CCCC(=O)N2)NCc1ccc(Cl)cc1`, the survival is inactive: 96%.

Take `Cc1cc(Cl)ccc1OCCSc1nnc(-c2cccs2)o1`: the survival was active: 37%.

Regarding `COc1ccc(CN(CCN(C)C)Cc2ccccc2)c(OC)c1`, the survival is inactive: 109%.

With `CCc1nccn1S(=O)(=O)c1cc(Br)ccc1Br`, the survival was active: 43%.

Turning to `COc1ccc(C)cc1NC(=O)CN(C)S(=O)(=O)c1ccc2[nH]c(=O)oc2c1`, the survival was inactive: 78%.

Take `CCc1ccc(-c2[nH]nc3nc(-c4cc(OC)ccc4OC)cc(C(=O)O)c23)cc1`: the survival is inactive: 97%.

Regarding `O=C(O)C1C2C=CC(C2)C1C(=O)NCCN1CCOCC1` (centres undefined), the survival is inactive: 82%.

As to `O=C(COc1ccccc1Cl)Nc1ccc2nc(SCC(=O)N3CCOCC3)sc2c1`, the survival is inactive: 76%.

For the compound `O=S(=O)(c1ccc2nc(Nc3ccc(Br)cc3F)ccc2c1)N1CCCCC1`, the survival was inactive: 70%.

`CCSc1nc2sc3c(c2c(=O)n1-c1ccc(C)c(Cl)c1)CCN(C(C)=O)C3`: the survival is inactive: 61%.

As to `N#Cc1ccc(C(=O)Nc2ccccc2-c2nc3ccccc3s2)c(F)c1`, the survival is inactive: 78%.

Take `COc1ccc(OCc2ccc(-c3nc(C#N)c(NCc4ccccc4)o3)o2)cc1`: the survival was inactive: 78%.

On to `CCOC(=O)Cc1ccc(NC(=O)n2ncc3cc(Cl)ccc32)cc1`, for which the survival is inactive: 83%.

`CNS(=O)(=O)c1ccc(NC(=O)c2cnn3c(C(F)F)cc(-c4ccccc4)nc23)cc1`: the survival was inactive: 66%.

`CCOC(=O)c1cnc2c(Cl)c(Cl)ccc2c1NCCN1CCOCC1`: the survival is active: 42%.

For the compound `Cc1c(-c2cccc(NC(=O)c3ccc(F)c(F)c3)c2)nc2ncccn12`, the survival was inactive: 84%.

For the compound `CCc1ccccc1NS(=O)(=O)c1ccc2oc(=O)c3ncn(C)c3c2c1`, the survival was inactive: 122%.

For the compound `COc1ccc(OC)c(NC(=O)CSc2nnc(NC(=O)C3CC3)s2)c1`, the survival was inactive: 107%.

For the compound `COCCOC(=O)c1c(C)oc2c1cc(NS(=O)(=O)c1ccc(Cl)c(C)c1)c1ccccc12`, the survival was active: 44%.

With `O=C(CN(Cc1ccco1)C(=O)c1nsc(Cl)c1Cl)NC1CCCCC1`, the survival was inactive: 106%.

As for `COc1ccc(Nc2ncnc3c2c(-c2ccccc2)cn3-c2ccc(C)c(Cl)c2)cc1OC`, the survival is inactive: 99%.

`CCc1ccccc1NC(=O)CSc1ncccc1C(=O)O`: the survival is inactive: 73%.

Turning to `COc1cccc(CNC(=O)CCc2c(C)nc3c(c2C)c(=O)n(C)c(=O)n3C)c1`, the survival was inactive: 104%.

Take `CCOc1ccc(C2C(C(=O)OC)=C(C)NC3=C2C(=O)c2ccccc23)cc1OC` (centres undefined): the survival is inactive: 48%.

As to `CCc1ccc(NC(=O)C2CCCN(c3nn4cc(-c5ccc(OC)cc5)nc4s3)C2)cc1` (centres undefined), the survival is inactive: 99%.

On to `O=C(Nc1ccc(F)cc1Cl)C1CCN(c2ncnc3c2nc2n3CCCCC2)CC1`, for which the survival was inactive: 91%.

For the compound `S=c1[nH]c2c(s1)sc1ccccc12`, the survival is inactive: 81%.

With `CN(C1CCCCC1)S(=O)(=O)c1ccc2c(c1)c(=O)c(C(=O)NCc1ccccc1Cl)cn2C`, the survival is inactive: 73%.

For `O=C(NCC(c1ccc2c(c1)OCO2)N1CCN(c2ccc(F)cc2)CC1)c1cccc([N+](=O)[O-])c1` (centres undefined), the survival was inactive: 74%.

On to `COC(=O)c1c(NC(=O)COc2c(C)cccc2C)sc2c1CCCC2`, for which the survival was active: 2%.

Turning to `CC1CCN(S(=O)(=O)c2ccc(C(=O)Nc3nc4ccc(F)cc4s3)cc2)CC1`, the survival was active: 46%.

For `CCOc1ccccc1NC(=O)c1cc2cc(C)ccc2n1C`, the survival is inactive: 62%.

Consider `CCC1C=CCC2C(=O)N(CC(=O)NCCC3=CCCCC3)C(=O)C12` (centres undefined), for which the survival is inactive: 73%.

Turning to `Cc1ccc(C(=O)CSc2ncn(-c3ccccc3)n2)cc1`, the survival was inactive: 84%.

As to `Cc1cccc(NC(=O)CSC2=Nc3ccccc3C3=NC(CCC(=O)NCc4ccc(F)cc4)C(=O)N23)c1` (centres undefined), the survival was inactive: 112%.

As to `CC(=O)c1ccc(NS(=O)(=O)c2cnc(N)nc2)cc1`, the survival was active: 6%.

On to `CCOc1ccccc1NC(=O)Cc1csc(COc2cccc(C)c2)n1`, for which the survival was inactive: 85%.

In the case of `O=C(NCCc1ccc(Cl)cc1)c1ccc(Cn2c(=O)[nH]c3ccccc3c2=O)cc1`, the survival was inactive: 105%.

As to `CC(=O)c1cccc(Nc2ncnc3c2cnn3C)c1`, the survival is inactive: 67%.

For the compound `Cc1ccc(-n2c3c(c(=O)[nH]c2=O)C(NS(=O)(=O)c2ccc(C)cc2)(C(F)(F)F)C(=O)N3)cc1` (centres undefined), the survival is inactive: 73%.

Turning to `COc1ccc2[nH]cc(CCNC(=O)Nc3cccc(F)c3)c2c1`, the survival was inactive: 94%.

As for `CC(C)=CCC(C)(C)C1OCCN1C(=O)Nc1ccccc1` (centres undefined), the survival was inactive: 95%.

As to `COc1ccc(Nc2nc3c(S(=O)(=O)c4ccc(Br)cc4)nnn3c3ccsc23)c(OC)c1`, the survival is inactive: 48%.

Turning to `CC1CCN(c2cc3c(cc2F)c(=O)c(S(=O)(=O)c2ccc(Cl)cc2)cn3C)CC1`, the survival was inactive: 99%.

Regarding `Cc1ccc(CNc2oc(-c3ccc(COc4ccc(Cl)cc4)o3)nc2C#N)cc1`, the survival is inactive: 59%.

Turning to `CCOC(=O)c1c(NC(=O)c2cc(-c3ccc(Cl)cc3)on2)sc2c1CCCC2`, the survival was inactive: 68%.

`CNC(=S)N1C2CCC1CC(NC(=O)NC13CC4CC(CC(C4)C1)C3)C2` (centres undefined): the survival is inactive: 79%.

For the compound `CC1CCCN(CC(O)CN)C1` (centres undefined), the survival was inactive: 96%.

On to `CCOc1ccc(-c2cc3nc(C4CCN(C(=O)OC(C)(C)C)CC4)c(C(=O)Nc4ccc(C)c(F)c4)cn3n2)cc1`, for which the survival was inactive: 78%.

With `CCC(=O)N1CCc2cc(Br)cc(S(=O)(=O)N3CCC(C(=O)N(CC)CC)CC3)c21`, the survival was inactive: 90%.

For `CCn1cc(C(=O)N2CCN(c3cc(Cl)ccc3C)CC2)c(=O)c2cc(S(=O)(=O)N3CCOCC3)ccc21`, the survival is inactive: 77%.

In the case of `CCc1ccc(NC(=O)C2CCC(CNS(=O)(=O)c3cccs3)CC2)cc1` (centres undefined), the survival was inactive: 94%.

For the compound `COc1cccc(CNC(=O)c2ccc3c(c2)N(C)C(=O)C2CCCCN32)c1` (centres undefined), the survival was inactive: 72%.
